Experimental data reported in the supplement of paper PMC3334620.
In all, about 33,000 sequences were measured (“E-score (-0.5 to 0.5)”: median about -0.01, highest 2% from about 0.26 on). The list shows a part of the results.

What follows are sequences tested against Ste12 (UniProt P13574) (assay: PBM E-score (8-mer binding enrichment) (E-score (-0.5 to 0.5)); higher = stronger / more preferred TF binding; most listed sequences are background and not binding sites). Settings: protein concentration: 200 nM; construct: GST-DNA-binding domain.
Method: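 Universal 'all 10-mer' protein binding microarrays (Agilent AMADID 015681) probed with GST-tagged S. cerevisiae TFs (full-length or DBD) made by in vitro transcription/translation (PURExpress), about 100-200 nM. Bound TF was detected with fluorescent anti-GST. Each ungapped 8-mer (which stands for itself and its reverse complement) is scored by the PBM enrichment score (E-score), a modified Wilcoxon-Mann-Whitney statistic from -0.5 to +0.5, computed with the Universal PBM Analysis Suite. Scale: above 0.35 generally sequence-specific binding.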

Sequence | PBM E-score
CCCTCAAG | -0.207
CAAAGAAC | 0.147
ACCTCAAC | 0.0358
CCATCAGA | 0.0673
GTATAGAA | 0.0347
AGTGATCG | -0.0719
ATGAACGG | 0.0221
CTAGCGTC | -0.154
ACTGTATA | 0.074
GGGTGAGA | -0.0699
CAGAAATG | 0.0384
CGGTTCAG | -0.123
ACGCGATG | 0.032
CCAGAAGA | 0.0259
CCTTTCAA | -0.0319
GCGCAGAC | -0.168
CTCCCGAC | -0.102
AAGGCTTC | -0.146
ACAGCCCC | 0.0486
CCTACAAG | -0.00719
GAGAGATA | 0.132
ATGATAGA | 0.159
CGACTCTA | -0.0794
CCCTGACC | 0.00902
CACCACAG | -0.187

Sequence | PBM E-score
ACCAAACA | 0.137
ACAGTAAT | 0.1
TAAAATAA | 0.269
CGGACTTC | -0.111
GCTCGACC | -0.107
TCGGTTCA | -0.136
CACCTATC | 0.0217
CTACCGGA | -0.198
GGACAGTA | -0.00625
CACCTGAA | 0.0275
CTGCTTTA | 0.206
ATTCTGCG | -0.0262
AATCTGGC | -0.102
GATGCTCA | -0.113
AACGAGCG | -0.0261
AAGTCGCG | 0.0702
GGAGTGGA | -0.114
CAACCTAA | 0.0543
GAAAGGCA | 0.0587
CCCTGGTA | -0.2
GTCGACGA | -0.0374
ACGGCGAA | 0.0954
ATCTGTAC | 0.0717
CATGAAAC | 0.484
TACGTCCA | -0.111

Sequence | PBM E-score
AAATAACT | 0.201
CATTAAGG | 0.0285
CGACACCG | 0.0188
AGCTATGG | 0.0157
ATACCATA | -0.0694
ACGCCCGT | 0.132
CGTTGAGC | -0.244
TGGACGAA | 0.0406
CTGGTGCC | -0.174
AGAGTAGG | -0.12
ACTCTTGC | -0.101
ATACCCGA | 0.112
GGGGAACA | -0.102
CGCTTCAC | 0.0273
CTCCCGCC | -0.0719
AGCAGAGG | -0.134
ACGTTCTC | 0.0364
CGACCCAA | 0.138
GAATTGTC | 0.00878
ATCTGAGG | 0.0822
CCTCGCAA | 0.18
GCGCGCCA | 0.1
ACATCTAA | 0.114
AACCCTCG | -0.0591
TTATTCAA | 0.156

Sequence | PBM E-score
AGGGGCGA | 0.165
GTGGTTTA | 0.135
CAGAGCGA | -0.0734
AGCAGTAA | 0.0857
GCATACGC | -0.153
AGTCAAAT | 0.089
ATGATAGG | -0.124
AGGGTCCA | -0.13
ACGGTCAG | -0.0237
ACTCTATG | -0.0969
CCCGTAAC | 0.113
TGAGGCAA | 0.111
AGGAAACG | -0.105
CACCCTTC | -0.0609
TTACATAA | 0.193
TCCGCGGA | 0.0157
CAACAAAA | 0.211
ACATTGAG | -0.0443
GACTTAGA | -0.272
CTCCGGAG | -0.0703
ATGCTATC | 0.0484
CTAAGTGA | -0.0834
CAGTTACG | -0.0984
TCCAGAAA | 0.168
CACTTGCA | 0.207

Sequence | PBM E-score
CAAGGCGA | -0.212
GGTGAGAA | -0.0216
ACTCGATC | 0.0483
ACTGTGAA | 0.27
AGTTTACC | -0.175
ACAGCATA | -0.0154
GACGACAC | -0.039
AACAGCCG | 0.0511
CAGATGAA | 0.17
ACCGGCAA | -0.104
GCCGACGC | -0.0186
AATGTCAG | 0.064
CAAAGATC | -0.0433
ACTCTCTA | -0.0608
AGCCAGCG | -0.134
CGGAGTGA | 0.0887
ACTCTCCT | -0.143
CCTAGGCC | -0.107
CAAAGGGG | -0.0222
AGATTCAG | -0.0532
ATACAAGG | 0.0765
CAAACAAG | 0.0644
GCATCTCA | -0.139
ATGCATCA | 0.161
AAACGCCC | -0.0205

Sequence | PBM E-score
CACAACTC | 0.145
GCAGCGCA | -0.146
CTTTATCA | 0.0116
ATCGTAAT | 0.161
CCATTCAA | -0.104
AGCTAATG | -0.111
CGAGACAA | 0.0198
ATACCTGC | -0.194
CGCTACAC | 0.0919
ACTTAACA | -0.0246
AGCTCACG | -0.234
ACAAAGCA | 0.29
TATCGCAA | -0.0312
CAGAAGCC | -0.0789
GAGTGAAC | 0.0184
CGCCGCGC | 0.177
AGGGACGG | 0.0535
GGAGACAC | -0.131
CACTATAC | -0.014
AATGTGTA | 0.0774
ATTCTAGG | 0.0796
AGGAACAG | -0.129
CTACAGAC | -0.113
GCAGCGAA | -0.176
CCTTGTTC | -0.0285

Sequence | PBM E-score
CACCCAGA | -0.02
CATTGGCG | -0.116
ATAGTGAC | -0.0488
ATCCTAAT | -0.0612
ACCCAGCA | -0.0858
ATCATCTA | -0.0267
ATGGTTGC | -0.0896
ATGACGTA | -0.145
CAAGAACG | 0.0165
ATGTTTTC | 0.172
ATCAAATA | 0.199
GATGTGCA | -0.0833
AACACTGT | -0.0147
AATGAGAG | -0.0696
AACTTAAA | 0.186
ATACTACA | 0.214
CACCAGCG | -0.0138
ATTGGCCC | -0.153
CCGCGGAC | -0.092
CAGTAAAG | 0.0406
GGACGACA | 0.117
CGCAGAAA | 0.0583
GGTAGTGA | -0.155
AACGTTTC | 0.328
CTCCTCTA | -0.177

Sequence | PBM E-score
CACCAACG | -0.133
AAAGCTAC | -0.167
CTCTTACC | -0.0547
TCGTCTCA | 0.134
GCATTCGA | -0.0034
CAGCAAAA | 0.132
CCCCCGCG | -0.161
CCGTAAAA | 0.107
GGGTAAAA | 0.295
AGCAGCCT | -0.0353
AAATTTCG | 0.134
AGTCAGTG | -0.0387
AGGAAACC | -0.0955
ACACGGGG | 0.088
GACGGAAA | 0.203
CTTGCCCA | -0.164
GTTCGCAA | 0.135
AATATCAG | 0.0475
ACTATAGT | 0.115
CTGCGGGC | -0.0275
CTGCGGCC | -0.0296
ACATAGGC | -0.0747
CCGATGTA | 0.0763
CTTCTACC | -0.152
ATAGCCAC | -0.153

Sequence | PBM E-score
TATAGAAA | 0.092
AAAGTACC | -0.0428
AGACCGTC | -0.164
CCTCCGCG | -0.0247
GTCTCGCA | -0.218
GAAGTACC | -0.167
GGCCCCCC | -0.126
GAAATAGA | 0.0446
CAGTCGTA | -0.0318
AATCGGGT | 0.0848
ACAACACC | -0.0636
CATTAAAG | 0.034
CGCCGGCG | 0.275
CGCTAGAC | -0.186
CTTAAAAC | 0.352
ATCCAAAA | 0.146
GCTTCAGA | 0.124
CCATAAGA | 0.063
CTCATGAG | -0.0245
GAACTAGC | 0.00172
AAACATGC | 0.231
AGTAACGC | 0.00391
ATTAGCTG | 0.0697
AAGGCCTG | -0.187
AGCGGGGC | -0.146

Sequence | PBM E-score
AGCGAATG | -0.0452
ACCATACG | -0.0611
GGTTTACA | -0.0303
CGGGCGCA | -0.0109
GATGAAAC | 0.494
AAAGTTTA | 0.199
TAATTACA | 0.0868
CAGAAACG | 0.052
GCGTCACC | -0.244
CTGAAATA | 0.202
AACCTTCC | -0.0876
ATCGAAAA | 0.125
AAGGAGGT | -0.112
GGGACCCC | -0.216
ACCACACC | 0.00862
CTGCTAAC | -0.195
ACCCGTGA | -0.0359
CACCTTCA | 0.0147
AGCCGCTG | -0.116
AGATCCCT | -0.128
AACTCTAG | -0.0059
AGGTCGGC | -0.099
CAAGTACC | -0.15
ACGGAGTG | -0.043
AGCGCCAT | -0.173

Sequence | PBM E-score
AGCCGCTC | -0.168
ATATGCGG | 0.117
CTCCTCGC | -0.242
TGCGAACA | -0.0424
GGGGAAGA | -0.106
ATCGCTAG | 0.0451
CACAGGGG | -0.0551
CACTGTGC | -0.0506
AATGACGG | 0.103
AAAATGAG | 0.124
CTGGTAAC | 0.0886
CCTGTCGA | -0.122
AGTTGCCA | -0.236
ACCATCCC | -0.00197
CTTCCCTA | -0.176
ACTCCAAA | 0.104
CCCGTACC | -0.0945
ACTAGGAT | -0.0135
AGCTAGGA | -0.0909
AACAGACT | 0.167
GCACCCAC | 0.0867
AATCTGGG | -0.0915
ATAAGCGG | -0.114
AAGGGGAA | -0.0456
CAGTGGTA | -0.208

Sequence | PBM E-score
CCCCGAAC | -0.0598
ACAGGGGC | 0.00449
AAGACAGT | -0.00908
AGTAGAAG | -0.139
ACTCGAGC | -0.161
TAGGAGAA | -0.0389
AAATCGGT | -0.0246
AAACTCGT | 0.136
CCCTTCAA | 0.0236
CCCCTGAC | 0.0225
AGTATTTC | 0.205
GATTCTCC | -0.148
TATGTGGA | 0.0901
ATGACCGG | -0.147
CACTCAGA | 0.129
GTGGATTA | 0.0079
AGCAGGAC | -0.0293
GTGGCCGA | -0.136
AAACTGAG | -0.16
AACGATCA | -0.144
CAGTTAGC | -0.218
ATCGTGAC | 0.0287
CAATTACC | -0.00263
ATTCTCGA | 0.17
GCTTAGTA | -0.102

Sequence | PBM E-score
CTGCTACC | -0.0316
CCATAGTA | 0.0358
AGTGAACG | -0.109
ACTCCTTG | -0.049
ACGCTACC | -0.279
AAATACGA | 0.00396
GCCAACCC | -0.0609
GAGGTTAA | 0.0122
ATTTTATC | 0.195
AGAGGCCC | -0.166
AGCGATTC | -0.0772
CGGTCGTA | -0.0858
GCAAAAGC | -0.0339
GGGGTCCA | -0.154
ACGAGGCA | -0.118
CAAGGTAG | -0.0188
CACGAGGC | -0.096
CGGCAAAA | 0.157
GCCATCGA | -0.141
CAGGAGGC | -0.157
CGCCGGAG | 0.0534
AACTAAAC | 0.144
CTTTCGCA | 0.00052
ATCTAAAT | 0.172
CTTCGGTC | -0.0601

Sequence | PBM E-score
GAATGATA | 0.309
AAAACTCA | 0.219
ACGGCACT | -0.0846
CATCGACC | 0.122
CGTGTGAG | 0.0368
TATGAAGA | 0.0389
GCATTTTA | 0.165
AGATGTGA | 0.262
AAGCAATT | 0.145
ACGCTGAC | -0.194
GTACCAAC | -0.122
ATCGAAAC | 0.324
GCCTAAAA | -0.0428
CCTGCGCA | -0.0798
CAGGCCCA | -0.103
CCAGTTCG | 0.0342
AGGAATCC | 0.00237
CTTACGCC | 0.0289
ATCGGGTA | -0.0385
